Part of at least one peptide drawing is inferred or uncertain, most often the ends. Square brackets hold non-standard residues; d marks the D form. Peptide text beside a SMILES is read from it. dPhe(4-NO2) = N[C@H](Cc1ccc([N+](=O)[O-])cc1)C(=O)O; dPhe(4-NH2) = Nc1ccc(C[C@@H](N)C(=O)O)cc1; dPhe(4-Br) = N[C@H](Cc1ccc(Br)cc1)C(=O)O; dPhe(4-Cl) = N[C@H](Cc1ccc(Cl)cc1)C(=O)O; Phe(2-Cl) = N[C@@H](Cc1ccccc1Cl)C(=O)O; dPhe(4-F) = N[C@H](Cc1ccc(F)cc1)C(=O)O; d2Nal = N[C@H](Cc1ccc2ccccc2c1)C(=O)O; NMeL = CN[C@@H](CC(C)C)C(=O)O
System: ovulation in female rats
Assay: Prevention of ovulation in mature female Sprague-Dawley rats
Format: in vivo, rat
Settings: injected about noon on day of proestrous, rats ovulating/rats treated

Q: How did the “in vivo No. Ovulating” value (Dose 0.5 μg in corn oil) turn out when `CC(=O)N[C@H](Cc1ccc2ccccc2c1)C(=O)N[C@H](Cc1ccc(F)cc1)C(=O)N[C@H](Cc1c[nH]c2ccccc12)C(=O)N[C@@H](CO)C(=O)N[C@@H](Cc1ccc(O)cc1)C(=O)N[C@H](CCCNC(=N)N)C(=O)N[C@@H](CC(C)C)C(=O)N[C@@H](CCCNC(=N)N)C(=O)N1CCC[C@H]1C(=O)NCC(N)=O` [Peptide 1, [Ac-β-D-2NAL^1,4-F-D-Phe^2,D-Trp^3, D-Arg^6]-GnRH] (Ac-[d2Nal][dPhe(4-F)][dW]SY[dR]LRPG-NH2) was run?
A: 2/11

Q: What about the “in vivo No. Ovulating” value (Dose 1 μg in corn oil) of the same compound?
A: 0/8

Q: What about the “in vivo No. Ovulating” value (Dose 2.5 μg in corn oil) of the same compound?
A: 0/10

Q: What about the “in vivo No. Ovulating” value (Dose 5 μg in corn oil) of the same compound?
A: 0/8

Q: And the “in vivo No. Ovulating” value (Dose 10 μg in corn oil)?
A: 0/6

Q: Which results are given for `CC(=O)N[C@H](Cc1ccc2ccccc2c1)C(=O)N[C@H](Cc1ccc(F)cc1)C(=O)N[C@H](Cc1c[nH]c2ccccc12)C(=O)N[C@@H](CO)C(=O)N[C@@H](Cc1ccc(O)cc1)C(=O)N[C@H](Cc1ccc(N)cc1)C(=O)N[C@@H](CC(C)C)C(=O)N[C@@H](CCCNC(=N)N)C(=O)N1CCC[C@H]1C(=O)NCC(N)=O` [Peptide 2] (Ac-[d2Nal][dPhe(4-F)][dW]SY[dPhe(4-NH2)]LRPG-NH2)?
A: in vivo No. Ovulating (Dose 1 μg in corn oil): 0/10; in vivo No. Ovulating (Dose 5 μg in corn oil): 3/6

Q: For `CC(=O)N[C@H](Cc1ccc2ccccc2c1)C(=O)N[C@H](Cc1ccc(Cl)cc1)C(=O)N[C@H](Cc1c[nH]c2ccccc12)C(=O)N[C@@H](CO)C(=O)N[C@@H](Cc1ccc(O)cc1)C(=O)N[C@H](CCCNC(=N)N)C(=O)N[C@@H](CC(C)C)C(=O)N[C@@H](CCCNC(=N)N)C(=O)N1CCC[C@H]1C(=O)NCC(N)=O` [Peptide 3] (Ac-[d2Nal][dPhe(4-Cl)][dW]SY[dR]LRPG-NH2), which “in vivo No. Ovulating” value (Dose 0.5 μg in corn oil) is on record?
A: 2/10

Q: Which “in vivo No. Ovulating” value (Dose 0.5 μg in corn oil) does the source give for `CCNC(=O)[C@@H]1CCCN1C(=O)[C@H](CCCNC(=N)N)NC(=O)[C@H](CC(C)C)NC(=O)[C@@H](CCCNC(=N)N)NC(=O)[C@H](Cc1ccc(O)cc1)NC(=O)[C@H](CO)NC(=O)[C@@H](Cc1c[nH]c2ccccc12)NC(=O)[C@@H](Cc1ccc(Cl)cc1)NC(=O)[C@@H](Cc1ccc2ccccc2c1)NC(C)=O` [Peptide 4] (Ac-[d2Nal][dPhe(4-Cl)][dW]SY[dR]LRP-NHEt) here?
A: 6/6

Q: And the “in vivo No. Ovulating” value (Dose 1 μg in corn oil)?
A: 0/4

Q: And the “in vivo No. Ovulating” value (Dose 2.5 μg in corn oil)?
A: 0/10

Q: And the “in vivo No. Ovulating” value (Dose 5 μg in corn oil)?
A: 0/7

Q: What about the “in vivo No. Ovulating” value (Dose 10 μg in corn oil) of the same compound?
A: 0/8

Q: Which “in vivo No. Ovulating” value (Dose 5 μg in corn oil) does the source give for `CCNC(=O)[C@@H]1CCCN1C(=O)[C@H](CCCNC(=N)N)NC(=O)[C@H](CC(C)C)NC(=O)[C@@H](CCCNC(=N)N)NC(=O)[C@H](Cc1ccc(O)cc1)NC(=O)[C@H](CO)NC(=O)[C@@H](Cc1c[nH]c2ccccc12)NC(=O)[C@@H](Cc1ccc([N+](=O)[O-])cc1)NC(=O)[C@@H](Cc1ccc2ccccc2c1)NC(C)=O` [Peptide 5] (Ac-[d2Nal][dPhe(4-NO2)][dW]SY[dR]LRP-NHEt) here?
A: 4/10

Q: `CCNC(=O)[C@@H]1CCCN1C(=O)[C@H](CCCNC(=N)N)NC(=O)[C@H](CC(C)C)NC(=O)[C@@H](CCCNC(=N)N)NC(=O)[C@H](Cc1ccc(O)cc1)NC(=O)[C@H](CO)NC(=O)[C@@H](Cc1c[nH]c2ccccc12)NC(=O)[C@@H](Cc1ccc(Br)cc1)NC(=O)[C@@H](Cc1ccc2ccccc2c1)NC(C)=O` [Peptide 6] (Ac-[d2Nal][dPhe(4-Br)][dW]SY[dR]LRP-NHEt) was tested. Which “in vivo No. Ovulating” value (Dose 2.5 μg in corn oil) did it give?
A: 9/10

Q: With `CC(=O)N[C@H](Cc1ccc2ccccc2c1)C(=O)N[C@H](Cc1ccc(F)cc1)C(=O)N[C@H](Cc1c[nH]c2ccccc12)C(=O)N[C@@H](CO)C(=O)N[C@@H](Cc1ccc(O)cc1)C(=O)N[C@H](CCCNC(=N)N)C(=O)N[C@@H](CC(C)C)C(=O)N[C@@H](CCCNC(=N)N)C(=O)N1CCC[C@H]1C(=O)N[C@H](C)C(N)=O` [Peptide 7] (Ac-[d2Nal][dPhe(4-F)][dW]SY[dR]LRP[dA]-NH2) as the compound, how does the “in vivo No. Ovulating” value (Dose 0.5 μg in corn oil) read?
A: 7/10

Q: And the “in vivo No. Ovulating” value (Dose 1 μg in corn oil)?
A: 1/10

Q: With `CC(=O)N[C@H](Cc1ccc2ccccc2c1)C(=O)N[C@H](Cc1ccc(F)cc1)C(=O)N[C@H](Cc1c[nH]c2ccccc12)C(=O)N[C@@H](CO)C(=O)N[C@@H](Cc1ccc(O)cc1)C(=O)N[C@H](CCCNC(=N)N)C(=O)N(C)[C@@H](CC(C)C)C(=O)N[C@@H](CCCNC(=N)N)C(=O)N1CCC[C@H]1C(=O)NCC(N)=O` [Peptide 8] (Ac-[d2Nal][dPhe(4-F)][dW]SY[dR][NMeL]RPG-NH2) as the compound, how does the “in vivo No. Ovulating” value (Dose 0.5 μg in corn oil) read?
A: 2/6

Q: And the “in vivo No. Ovulating” value (Dose 1 μg in corn oil)?
A: 0/5

Q: What does the source list for `CC(=O)N[C@H](Cc1ccc2ccccc2c1)C(=O)N[C@H](Cc1ccc(F)cc1)C(=O)N[C@H](Cc1c[nH]c2ccccc12)C(=O)N[C@@H](CO)C(=O)N[C@@H](Cc1ccccc1Cl)C(=O)N[C@H](CCCNC(=N)N)C(=O)N[C@@H](CC(C)C)C(=O)N[C@@H](CCCNC(=N)N)C(=O)N1CCC[C@H]1C(=O)NCC(N)=O` [Peptide 9] (Ac-[d2Nal][dPhe(4-F)][dW]S[Phe(2-Cl)][dR]LRPG-NH2)?
A: in vivo No. Ovulating (Dose 0.5 μg in corn oil): 0/6; in vivo No. Ovulating (Dose 1 μg in corn oil): 0/7

Source: patent US4444759A, “GnRH Antagonists II” (The Salk Institute for Biological Studies, priority 1982, dated 1984)
